Assay results: the RNAGym collection of RNA variant scans (doi:10.1093/nar/gkz1192)
Read counts are not given, so values of variants with three or more changes are uncertain.

B1: CPEB3 Ribozyme (parent)
chain: UAACAGGGGGCCACAGCAGAAGCGUUCACGUCGCAGCCCCUGUCAGAUUCUGGUGAAUCUGCGAAUUCUGCUGUAUAUCUC

Variants of: B1
Assay: self-cleavage, relative activity (ratio to wild type); higher = more cleavage; in vitro, sequencing
Method in brief: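 CPEB3 self-cleaving ribozyme mutant libraries were made by rounds of error-prone PCR, barcoded, and transcribed in vitro with T7 RNA polymerase for 5 hours at 37°C. Cleavage occurred during transcription and a 15 min DNase I step before EDTA stop. RNAs were reverse transcribed with template switching and Illumina-sequenced, with DNA sequencing mapping barcodes to variants. Relative activity is the variant's cleaved/total read fraction divided by wild type's (minimum 5 reads), averaged across three batches.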

| Variant | self-cleavage |
| --- | --- |
| C50U A57U A64C | 0.14 |
| U49C U60A A65U | 0.16 |
| U60A U69C U72A | 0.35 |
| C50U U51C A77G | 1.13 |
| C62G A64G A65U | 0.11 |
| U54C U58C A65U | 0.14 |
| U58A U60C C62A | 0.25 |
| U51C U54C U74C | 1.24 |
| U60C U69C U74C | 0.62 |
| U48C U69A A77U | 0.19 |
| U49A U66C A77U | 0.2 |
| G52A U67C U76A | 0.48 |
| U49A A57G A64G A75C | 0.33 |
| U49C U60C U80C | 0.11 |
| U60C A65G U69C | 0.24 |
| U58C A65G U69C | 0.34 |
| G53U A64G U76A | 1.15 |
| A57G G63C U78C | 0.79 |
| U51C U78C C79G U80C | 1.22 |
| U48G U51A U60A A64G | 0.13 |
| A57U A64C U78C | 0.15 |
| G63A G70A U80C | 0.19 |
| U51A U54C C68A | 0.2 |
| U48C A65G U69C U78A | 0.19 |

| Variant | self-cleavage |
| --- | --- |
| A56G U60C A64G U72C | 0.17 |
| U51C U69C U72G | 0.54 |
| U60C U72C U76C | 0.52 |
| U48C U51C A56G A65G | 0.19 |
| A56G U60C U80C | 0.42 |
| A56U U58C U74A | 0.2 |
| U48C U67C U72A | 0.35 |
| U51A A56G U67A | 0.33 |
| A57G U74A A75G | 0.97 |
| U48C U66C U80A | 0.14 |
| U48C U66C U78C | 0.17 |
| U49A A57G U72A U76C | 0.35 |
| C50U A56G U60A U80C | 0.33 |
| U60A C62G U76A | 0.2 |
| G53A A57G U72A | 0.82 |
| A57U U66C C81U | 0.26 |
| U69A U78C U80C | 0.79 |
| U51A U60C U80A | 0.79 |
| U58C U60A C81G | 0.2 |
| U58C U72C U78C | 0.43 |
| U48G U66C G70C | 0.17 |
| U66C U67C U72C U78G | 0.13 |
| U51A U67A U72A | 0.56 |
| G55A A57U U60C | 0.21 |

| Variant | self-cleavage |
| --- | --- |
| U54C U67C U69A C71U | 0.14 |
| U49A A56G U80A | 0.78 |
| U51C U66C U67C U78C | 0.55 |
| U54C A56U A57G A64G | 0.23 |
| A56G A57U A75G | 0.23 |
| U54C A57G U67C | 0.17 |
| U54C A57G U60C U78C | 0.39 |
| A56U G61C A64U C68A U72A | 0.1 |
| C68A U69C C79G | 0.31 |
| U54A A64G U78C | 0.78 |
| U48C U49C G55A A56G | 0.31 |
| U51C U69C U80C | 0.65 |
| A57G U60C A77U | 0.43 |
| U49C U54C U58C U74C A75G | 0.16 |
| U49A C68A U69C U74C | 0.18 |
| U49A U69C U78C | 0.27 |
| U58C U72A U80C | 0.74 |
| A56U U69C U76C | 0.43 |
| A56G U69A U78G | 0.78 |
| U51A U58C A64C | 0.19 |
| A56U U66C U67C | 0.16 |
| U60A U69C U74A | 0.35 |
| U54C A56U A64G | 0.32 |
| A56U U74C U78A | 0.6 |

| Variant | self-cleavage |
| --- | --- |
| A64G A65U U67C U72G A75G | 0.22 |
| U51A U60C U69C | 0.34 |
| U48C U51C A56U U80A | 0.32 |
| U49A U51C A65G | 0.2 |
| A64G A65G U69A U76C A77G | 0.12 |
| G53A A56U U60A A64G A65U | 0.19 |
| G52U G55C A57C | 0.64 |
| U60C A64U U67C | 0.3 |
| U54G U58G U69C A77U U78C | 0.15 |
| G55A U74C U78G | 1.26 |
| U54C U69C U78G | 0.47 |
| U54C U66C U74A | 0.47 |
| G53U A56C A65G | 0.26 |
| U49C C62U U74C U80C | 0.16 |
| G63A A64U U72A | 0.28 |
| U54C A64G U80C | 0.87 |
| U48C A57U U74C U78A | 0.72 |
| A57G C68U U72A | 0.41 |
| A56U C59A U76G | 0.08 |
| U60A C68G U80C | 0.48 |
| A56G U69A U76C | 0.7 |
| U54C C68A U72C U78C | 0.28 |
| G55U A65G U69C | 0.23 |
| G55U U72C U80C | 1.2 |

| Variant | self-cleavage |
| --- | --- |
| U51A A57C A65G U69C | 0.59 |
| U58C U72G A77U | 0.6 |
| A57G C62A A64G U74A | 0.69 |
| A56U A57U A65G | 0.23 |
| U51A A57G U60C U72C | 0.43 |
| U54A A75U U78C | 1.14 |
| A56U A64U U76C | 0.26 |
| U54C U67A U74C A77G | 0.45 |
| A56G U69C U72C | 0.35 |
| C59A U69A U72A | 0.1 |
| U49C U51C U74C U80A | 0.38 |
| U66A U76C U78A | 0.64 |
| G61C U72C U74C | 0.48 |
| U54A A56G U72C U78C | 0.95 |
| U48C U51A U69C | 0.16 |
| U49C A57G G61U U67G U80A | 0.11 |
| U48C U72G U74C U76A | 0.27 |
| U60C A65G U76A | 0.3 |
| U54C U78C C79U | 1.23 |
| U51A U60C U66C | 0.39 |
| U54G A64G U74A | 1.14 |
| U54A A64U U72A A75U | 0.57 |
| U66A G70A U80C | 0.24 |
| U54C A56U C71U A75U | 0.33 |

| Variant | self-cleavage |
| --- | --- |
| U58A U72C A75G | 0.34 |
| C50U U54C U72A | 0.9 |
| G53U A64G U67A | 0.33 |
| U48C U66C U72C | 0.25 |
| U60C U69C U74A U80C | 0.53 |
| U66A U72C U78A U80C | 0.63 |
| A64G U66A U72A | 0.54 |
| U48C A56G A65G | 0.35 |
| U54A U58C A75U | 0.98 |
| G52C G70A A77G | 0.43 |
| U49C U54A U80C | 0.48 |
| A56U A57G A75U U80C | 0.34 |
| U51C U67C U72A | 0.48 |
| U49C C62A U72G | 0.2 |
| A56U U69A U72C | 0.33 |
| U49A U60C G63A A65G U74C | 0.11 |
| U49A U66A A77G U78A | 0.13 |
| U48C U60A U78C | 0.18 |
| G63A A64G U72C U80C | 0.63 |
| U69C U72A U78A | 0.5 |
| A56G U60A A64G U72C | 0.43 |
| U49C U54A G61U | 0.18 |
| C62A U69A U72C | 0.32 |
| U49C A56U U58G U60C U72G U78C | 0.1 |

| Variant | self-cleavage |
| --- | --- |
| G53A U72C U78C | 1.24 |
| A56G A57G U69C A77U | 0.18 |
| U49C C62U U66C | 0.17 |
| U54C U66C U67C | 0.22 |
| U66C U72A A77G | 0.35 |
| U54C U58C C62U | 0.34 |
| U49A U51C U54A | 0.86 |
| U60G U66C U67C | 0.18 |
| A56G U69C A77G | 0.5 |
| A56G U58G U67C | 0 |
| C62G U67C C68A U69A | 0.23 |
| U49C U51A C59G U80G | 0.11 |
| U60C G61A U67C U80C | 0.28 |
| U49C U67C U78C | 0.21 |
| A57G C71G A77G | 0.29 |
| U67G A77G U80C | 0.28 |
| U58C A64C U80C | 0.17 |
| U58C U60C U78C | 0.47 |
| U49C U51C U76A | 0.37 |
| A56G A57G U80C | 0.44 |
| A56U U60A U78A U80C | 0.21 |
| G52A G61C G63A | 0.46 |
| U48C A56U A64G U72C | 0.35 |
